# Source: US8592383B2, “Cycloalkyl-fused tetrahydroquinolines as CRTH2 receptor modulators” (Merck Sharp & Dohme Corp., priority 2011, dated 2013)
# Biological target: T1, hCRTH2 (Homo sapiens, UniProt Q9Y5Y4)
# T1 sequence (Q9Y5Y4 1-395): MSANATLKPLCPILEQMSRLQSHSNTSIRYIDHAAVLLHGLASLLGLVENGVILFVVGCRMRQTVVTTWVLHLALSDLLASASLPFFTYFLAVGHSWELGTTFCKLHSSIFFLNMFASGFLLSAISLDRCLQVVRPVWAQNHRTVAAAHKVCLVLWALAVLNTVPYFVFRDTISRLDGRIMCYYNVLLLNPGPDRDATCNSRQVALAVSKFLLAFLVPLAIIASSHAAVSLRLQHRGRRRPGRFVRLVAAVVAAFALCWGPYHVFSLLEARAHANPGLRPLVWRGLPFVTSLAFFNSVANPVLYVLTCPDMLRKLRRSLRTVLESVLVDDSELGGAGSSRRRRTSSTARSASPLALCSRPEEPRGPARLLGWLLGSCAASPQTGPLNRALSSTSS
# Assay: biochemical
# Conditions: Ki (nM), Table A; Radioligand Binding Assay A, [3H]PGD2, HEK-hCRTH2 membranes
row,Structure (SMILES),Ki [nM]
1,"O=C(O)CCC(=O)N(C1CC1)C1c2ccccc2N(C(=O)OCc2cc(F)cc(F)c2)C2CCCC21 (single isomer, unassigned) [22N, 4-[(3,5-difluorophenyl)methyl] cis, cis-[(3-carboxy-1-oxopropyl)cyclopropylamino]-1,2,3,3a,9,9a-hexahydro-4H-cyclopenta[b]quinoline-4-carboxylate]",20.1 to 200
2,"CCN(C(=O)CCC(=O)O)C1c2ccccc2N(C(=O)c2cc(F)c(F)c(F)c2)C2CCC12 (single isomer, unassigned) [compound 86, 4-(ethyl(cis, cis-3-(3,4,5-trifluorobenzoyl)-1,2,2a,3,8,8a-hexahydrocyclobuta[b]quinolin-8-yl)amino)-4-oxobutanoic acid]",20.1 to 200
3,"CCN(C(=O)CCC(=O)O)C1c2ccccc2N(C(=O)c2ccc(F)c(C(F)(F)F)c2)C2CCCC12 (single isomer, unassigned) [compound 67, 4-[ethyl[cis, cis-4-[4-fluoro-3-(trifluoromethyl)benzoyl]-2,3,3a,4,9,9a-hexahydro-1H-cyclopenta[b]quinolin-9-yl]amino]-4-oxobutanoic acid]",5.1 to 20
4,"O=C(O)CCC(=O)N(C1CC1)C1c2ccccc2N(C(=O)c2cccc3ccccc23)C2CCCC21 (single isomer, unassigned) [17Bo, 4-[cyclopropyl[cis,cis-2,3,3a,4,9,9a-hexahydro-4-(1-naphthalenylcarbonyl)-1H-cyclopenta[b]quinolin-9-yl]amino]-4-oxobutanoic acid]",1 to 5
5,"O=C(O)COC(=O)N(C1CC1)C1c2ccccc2N(c2nnc(Cc3ccc(OC(F)(F)F)cc3)o2)C2CCCC21 (racemic) [38D, [[[cyclopropyl[cis,cis-2,3,3a,4,9,9a-hexahydro-4-[5-[[4-(trifluoromethoxy)phenyl]methyl]-1,3,4-oxadiazol-2-yl]-1H-cyclopenta[b]quinoline-9-yl]amino]carbonyl]oxy] acetic acid]",5.1 to 20
6,CCc1ccc(C(=O)N2c3ccccc3C(N(C)C(=O)CCC(=O)O)C3CCCC32)cc1 (racemic) [17Y],20.1 to 200
7,"CCc1ccc2c(c1)[C@@H](N(C(=O)CCC(=O)O)C1CC1)[C@H]1CCC[C@H]1N2C(=O)c1ccc(OC(F)(F)F)cc1 (single isomer, unassigned) [compound 54, 4-(Cyclopropyl((cis,cis,)-7-ethyl-4-(4-(trifluoromethoxy)benzoyl)-2,3,3a,4,9,9a-hexahydro-1H-cyclopenta[b]quinolin-9-yl)amino)-4-oxobutanoic acid]",20.1 to 200
8,"O=C(O)CCC(=O)N(C1CC1)C1c2ccccc2N(C(=O)c2ccc(-c3cncnc3)cc2)C2CCCC21 (racemic) [18N, 4-[cyclopropyl[cis,cis-2,3,3a,4,9,9a-hexahydro-4-[4-(5-pyrimidinyl)benzoyl]-1H-cyclopenta[b]quinolin-9-yl]amino]-4-oxobutanoic acid]",20.1 to 200
9,"CN(C(=O)CCC(=O)O)C1c2ccccc2N(C(=O)OCc2ccccc2)C2CCCC12 (racemic) [17U, 4-(phenylmethyl) cis,cis-9-[(3-carboxy-1-oxopropyl)methylamino]-1,2,3,3a,9,9a-hexahydro-4H-cyclopenta[b]quinoline-4-carboxylate]",201 to 7500
10,"CC1(N(C(=O)CCC(=O)O)C2c3ccccc3N(C(=O)c3ccccc3)C3CCCC32)CC1 (racemic) [17i, 4-[[cis,cis-4-benzoyl-2,3,3a,4,9,9a-hexahydro-1H-cyclopenta[b]quinolin-9-yl](1-methylcyclopropyl)amino]-4-oxobutanoic acid]",20.1 to 200
11,"O=C(O)Cc1nnc(N(C2CC2)[C@@H]2c3ccccc3N(C(=O)c3ccc(OC(F)(F)F)cc3)[C@@H]3CCC[C@@H]32)o1 (racemic) [compound 41, 5-[Cyclopropyl[cis,cis-2,3,3a,4,9,9a-hexahydro-4-[4-(trifluoromethoxy)benzoyl]-1H-cyclopenta[b]quinolin-9-yl]amino]-1,3,4-oxadiazole-2-acetic acid]",201 to 7500
12,"CC(=O)N(CCCC(=O)O)[C@@H]1c2ccccc2N(C(=O)c2ccc(OC(F)(F)F)cc2)[C@@H]2CCC[C@H]12 (racemic) [compound 47, 4-[Acetyl[cis,cis-2,3,3a,4,9,9a-hexahydro-4-[4-(trifluoromethoxy)benzoyl]-1H-cyclopenta[b]quinolin-9-yl]amino]butanoic acid]",201 to 7500
13,"C[C@@H](OC(=O)N(C1CC1)C1c2ccccc2N(C(=O)OCc2ccccc2)C2CCCC21)C(=O)O (stereo partly drawn) [32C, 4-(phenylmethyl) cis, cis-[[(1R)-carboxyethoxy)carbonyl] cyclopropylamino]-1,2,3,3a-9,9a-hexahydro-4H-cyclopenta[b]quinoline-4-carboxylate]",20.1 to 200
14,"O=C(O)CCC(=O)N(C1CC1)C1c2ccccc2N(C(=O)c2cccc(-c3ccnnc3)c2)C2CCCC21 (single isomer, unassigned) [18T, 4-[cyclopropyl[cis, cis-2,3,3a,4,9,9a-hexahydro-4-[3-(4-pyridazinyl)benzoyl]-1H-cyclopenta[b]quinolin-9-yl]amino]-4-oxobutanoic acid]",20.1 to 200
15,"O=C(O)COC(=O)N(C1CC1)C1c2ccccc2N(C(=O)c2cccc(OC(F)(F)F)c2)C2CCCC21 (racemic) [32L, [[[cyclopropyl[cis,cis-2,3,3a,4,9,9a-hexahydro-4-[3-(trifluoromethoxy)benzoyl]-1H-cyclopenta[b]quinolin-9-yl]amino]carbonyl]oxy]acetic acid]",1 to 5
16,"O=C(O)CCC(=O)N(C1CC1)C1c2ccccc2N(C(=O)c2cccc(-c3cncnc3)c2)C2CCCC21 (racemic) [18F, 4-[cyclopropyl[cis,cis-2,3,3a,4,9,9a-hexahydro-4-[3-(5-pyrimidinyl)benzoyl]-1H-cyclopenta[b]quinolin-9-yl]amino]-4-oxobutanoic acid]",20.1 to 200
17,"O=C(O)CCCN(CC1CCC1)C1c2ccccc2N(C(=O)c2ccc(OC(F)(F)F)cc2)C2CCCC12 (racemic) [compound 122, 4-[(cyclobutylmethyl)[cis,cis-2,3,3a,4,9,9a-hexahydro-4-[4-(trifluoromethoxy)benzoyl]-1H-cyclopenta[b]quinolin-9-yl]amino]butanoic acid]",20.1 to 200
18,"CCc1ccc(C(=O)N2c3ccccc3C(N(C(=O)OCC(=O)O)C3CC3)C3CCCC32)cc1 (single isomer, unassigned) [32O, [[[cyclopropyl[cis, cis-4-(4-ethylbenzoyl)-2,3,3a,4,9,9a-hexahydro-1H-cyclopenta[b]quinolin-9-yl]amino]carbonyl]oxy]acetic acid]",1 to 5
19,"O=C(O)COC(=O)N(C1CC1)C1c2ccccc2N(C(=O)OCc2ccccc2)C2CCCC21 (single isomer, unassigned) [32E]",1 to 5
20,CN(C(=O)CCC(=O)O)C1c2ccccc2N(C(=O)c2ccc(Cl)cc2)C2CCCC12 (racemic) [17X],20.1 to 200
21,"O=C(O)CCCN(C1CC1)C1c2cc(F)c(F)cc2N(C(=O)OCc2ccccc2)C2CCC21 (single isomer, unassigned) [compound 117, 4-((cis, cis-3-(benzyloxycarbonyl)-5,6-difluoro-1,2,2a,3,8,8a-hexahyclrocyclobuta[b]quinolin-8-yl)(cyclopropyl)amino) butanoic acid]",1 to 5
22,"O=C(O)CCC(=O)N(C1CC1)C1c2cc(Cl)c(Cl)cc2N(C(=O)OCc2ccccc2)C2CCC21 (single isomer, unassigned) [compound 119, 3-(phenylmethyl) cis,cis-8-[(3-carboxy-1-oxopropyl)cyclopropylamino]-5,6-dichloro-2,2a,8,8a-tetrahydrocyclobuta[b] quinoline-3(1H)-carboxylate]",1 to 5
23,"O=C(O)CCC(=O)N(C1CC1)C1c2ccccc2N(C(=O)CCc2ccc(OC(F)(F)F)cc2)C2CCCC21 (single isomer, unassigned) [17Di, 4-[cyclopropyl[cis,cis-2,3,3a,4,9,9a-hexahydro-4-[1-oxo-3-[4-(trifluoromethoxy)phenyl]propyl]-1H-cyclopenta[b]quinolin-9-yl]amino]-4-oxobutanoic acid]",20.1 to 200
24,O=C(O)CCC(=O)N(C1CC1)[C@H]1c2cc(F)ccc2N(C(=O)c2ccc(OC(F)(F)F)cc2O)[C@H]2CCC[C@H]21 [compound 171],5.1 to 20
25,"CC12CCCC1N(C(=O)OCc1ccccc1)c1ccccc1C2N(C(=O)CCC(=O)O)C1CC1 (single isomer, unassigned) [compound 160, 4-((cis, cis-4-((benzyloxy)carbonyl)-9a-methyl-2,3,3a,4,9,9a-hexahydro-1H-cyclopenta[b]quinolin-9-yl)(cyclopropyl)amino)-4-oxobutanoic acid]",201 to 7500
26,"O=C(O)CCC(=O)N(C1CC1)C1c2ccc(F)cc2N(C(=O)OC2Cc3ccccc3C2)C2CCCC21 (single isomer, unassigned) [compound 149, 4-(2,3-dihydro-1H-inden-2-yl) cis, cis-[(3-carboxy-1-oxopropyl)cyclopropylamino]-6-fluoro-1,2,3,3a,9,9a-hexahydro-4H-cyclopenta[b]quinoline-4-carboxylate]",1 to 5
27,"O=C(O)CCC(=O)N(C1CC1)C1c2ccccc2N(C(=O)c2ccc(-c3ccnnc3)cc2)C2CCCC21 (racemic) [18Q, 4-[cyclopropyl[cis,cis-2,3,3a,4,9,9a-hexahydro-4-[4-(4-pyridazinyl)benzoyl]-1H-cyclopenta[b]quinolin-9-yl]amino]-4-oxobutanoic acid]",20.1 to 200
28,"O=C(O)CCC(=O)N(C1CC1)C1c2ccc(Cl)cc2N(C(=O)c2cc(F)cc(F)c2)C2CCCC21 (single isomer, unassigned) [17CW, 4-[[cis,cis-6-chloro-4-(3,5-difluorobenzoyl)-2,3,3a,4,9,9a-hexahydro-1H-cyclopenta[b]quinolin-9-yl]cyclopropylamino]-4-oxobutanoic acid]",5.1 to 20
